Experimental data published in the supplement of paper PMC4967469.
IC50 is the fitted dose that halves viability relative to control wells, and lower means more sensitive; where the fit passes the top or lowest dose, that dose stands as a limit. AUC, from the same fit, is the share of area under the viability curve across the 256-fold dose range; values near 1 show little effect. For some assays here: Any top dose called inferred was calculated from the reported fits.

How the values were obtained:
Assay in all cases: Viability of human cancer cell lines after 72 h of drug (GDSC screen)
[1] = compound: C=CC(=O)Nc1cc(NC(=O)c2ccc(C)c(NC(=O)c3ccno3)c2)cc(C(F)(F)F)c1 [QL-XI-92]; details: top dose 10.24 µM; top dose inferred
Description: (§1)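 Human cancer cell lines in 384-well plates, medium with 10% serum, drug for 72 h over a 256-fold dose range (nine 2-fold or five 4-fold steps up to the top dose). Adherent lines were fixed and stained with the nucleic acid dye Syto60, suspension lines read with resazurin; signal relative to control wells, capped at 0 and 100%. One two-parameter sigmoid per drug and line, fitted in a mixed model over all curves with the slope shared within a line.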

[2] = compound: COc1cc2ncnc(Nc3ccc(F)c(Cl)c3)c2cc1OCCCN1CCOCC1 [Gefitinib]; details: top dose 0.5 µM
Description: as §1

[3] = compound: CCC1=C[C@@H]2CN(C1)Cc1c([nH]c3ccccc13)[C@@](C(=O)OC)(c1cc3c(cc1OC)N(C)[C@H]1[C@@](O)(C(=O)OC)[C@H](OC(C)=O)[C@]4(CC)C=CCN5CC[C@]31[C@@H]54)C2 [Vinorelbine]; details: top dose 0.064 µM; top dose inferred
Description: as §1

[4] = compound: COc1cc2nccc(Oc3ccc(NC(=O)C4(C(=O)Nc5ccc(F)cc5)CC4)cc3)c2cc1OC [XL-184]; details: top dose 5.12 µM; top dose inferred
Description: as §1

[5] = compound: O=c1cc(N2CCOCC2)oc2c(-c3cccc4c3sc3ccccc34)cccc12 [NU-7441]; details: top dose 2 µM; top dose inferred
Description: as §1

[6] = compound: CNCc1ccc(-c2[nH]c3cc(F)cc4c3c2CCNC4=O)cc1 [AG-014699]; details: top dose 5 µM; top dose inferred
Description: as §1

[7] = compound: O=c1cc(CN2CCOCC2)occ1OCCCCCSc1ccnc2cc(C(F)(F)F)ccc12 [EHT 1864]; details: top dose 10 µM; top dose inferred
Description: as §1

[8] = compound: N=C(N)NC(=N)NCCc1ccccc1 [Phenformin]; details: top dose 4000 µM; top dose inferred
Description: as §1

[9] = compound: N[C@@H](CSC(c1ccccc1)(c1ccccc1)c1ccccc1)C(=O)O [S-Trityl-L-cysteine]; details: top dose 5.12 µM; top dose inferred
Description: as §1

[10] = compound: COc1cc2ncnc(Nc3cc(Br)c(O)c(Br)c3)c2cc1OC [WHI-P97]; details: top dose 10.24 µM; top dose inferred
Description: as §1

Row | Cell Line | AUC [1] | IC50 [1] [µM] | AUC [2] | IC50 [2] [µM] | AUC [3] | IC50 [3] [µM] | AUC [4] | IC50 [4] [µM] | AUC [5] | IC50 [5] [µM] | AUC [6] | IC50 [6] [µM] | AUC [7] | IC50 [7] [µM] | AUC [8] | IC50 [8] [µM] | AUC [9] | IC50 [9] [µM] | AUC [10] | IC50 [10] [µM]
1 | MN-60 (B-cell leukaemia, suspension) | 0.932 | > 10.2 | 0.986 | > 0.5 | 0.918 | > 0.064 | 0.973 | > 5.12 | 0.988 | > 2 | 0.988 | > 5 | 0.976 | > 10 | 0.66 | 709 | 0.969 | > 5.12 | 0.962 | > 10.2
2 | MPP-89 (mesothelioma, adherent) | 0.977 | > 10.2 | 0.967 | > 0.5 | 0.887 | > 0.064 | 0.78 | 2.8 | 0.887 | > 2 | 0.977 | > 5 | 0.973 | > 10 | 0.979 | > 4000 | 0.93 | > 5.12 | 0.929 | > 10.2
3 | MS-1 (small cell lung carcinoma, suspension) | 0.873 | 8.13 | 0.967 | > 0.5 | 0.897 | > 0.064 | 0.964 | > 5.12 | 0.986 | > 2 | 0.981 | > 5 | 0.951 | > 10 | 0.569 | 377 | 0.754 | 1.56 | 0.98 | > 10.2
4 | MY-M12 (leukaemia, suspension) | 0.548 | 0.879 | 0.976 | > 0.5 | 0.617 | 0.00876 | 0.503 | 0.326 | 0.927 | > 2 | 0.874 | > 5 | 0.92 | > 10 | 0.69 | 916 | 0.622 | 0.728 | 0.931 | > 10.2
5 | MZ1-PC (pancreas, adherent) | 0.911 | > 10.2 | 0.978 | > 0.5 | 0.51 | 0.00428 | 0.727 | 1.68 | 0.973 | > 2 | 0.905 | > 5 | 0.977 | > 10 | 0.516 | 280 | 0.745 | 1.95 | 0.899 | > 10.2
6 | MZ2-MEL (melanoma, adherent) | 0.883 | > 10.2 | 0.979 | > 0.5 | 0.767 | 0.0277 | 0.964 | > 5.12 | 0.943 | > 2 | 0.96 | > 5 | 0.964 | > 10 | 0.803 | 2390 | 0.834 | 4.17 | 0.903 | > 10.2
7 | Mo-T (hairy cell leukaemia, suspension) | 0.861 | 8.94 | 0.986 | > 0.5 | 0.981 | > 0.064 | 0.972 | > 5.12 | 0.849 | 1.56 | 0.941 | > 5 | 0.927 | > 10 | 0.602 | 478 | 0.987 | > 5.12 | 0.956 | > 10.2
8 | NALM-6 (B-cell leukaemia, suspension) | 0.74 | 2.7 | 0.986 | > 0.5 | 0.534 | 0.00486 | 0.836 | 2.63 | 0.98 | > 2 | 0.985 | > 5 | 0.937 | > 10 | 0.26 | 59.4 | 0.545 | 0.417 | 0.941 | > 10.2
9 | NB5 (neuroblastoma, adherent) | 0.982 | > 10.2 | 0.93 | > 0.5 | 0.886 | > 0.064 | 0.978 | > 5.12 | 0.943 | > 2 | 0.846 | 3.71 | 0.887 | > 10 | 0.987 | > 4000 | 0.714 | 1.31 | 0.969 | > 10.2
10 | NB6 (neuroblastoma, adherent) | 0.975 | > 10.2 | 0.983 | > 0.5 | 0.83 | 0.0532 | 0.946 | > 5.12 | 0.984 | > 2 | 0.984 | > 5 | 0.983 | > 10 | 0.972 | > 4000 | 0.789 | 2.86 | 0.967 | > 10.2
11 | NB14 (neuroblastoma, adherent) | 0.978 | > 10.2 | 0.984 | > 0.5 | 0.682 | 0.0125 | 0.883 | 4.96 | 0.932 | > 2 | 0.932 | > 5 | 0.98 | > 10 | 0.977 | > 4000 | 0.977 | > 5.12 | 0.927 | > 10.2
12 | NB17 (neuroblastoma, adherent) | 0.834 | 8.09 | 0.984 | > 0.5 | 0.809 | 0.0395 | 0.93 | > 5.12 | 0.98 | > 2 | 0.891 | > 5 | 0.928 | > 10 | 0.98 | > 4000 | 0.814 | 3.33 | 0.939 | > 10.2
13 | NB69 (neuroblastoma, adherent) | 0.966 | > 10.2 | 0.87 | 0.379 | 0.501 | 0.00403 | 0.907 | > 5.12 | 0.93 | > 2 | 0.707 | 1.1 | 0.911 | > 10 | 0.777 | 1420 | 0.696 | 1.05 | 0.988 | > 10.2
14 | NB-4 (acute myeloid leukaemia, suspension) | 0.835 | 5.08 | 0.991 | > 0.5 | 0.296 | 0.00121 | 0.968 | > 5.12 | 0.953 | > 2 | 0.991 | > 5 | 0.988 | > 10 | 0.771 | 1260 | 0.68 | 0.917 | 0.928 | > 10.2
15 | NCI-H64 (small cell lung carcinoma, suspension) | 0.981 | > 10.2 | 0.996 | > 0.5 | 0.526 | 0.00464 | 0.981 | > 5.12 | 0.992 | > 2 | 0.994 | > 5 | 0.99 | > 10 | 0.984 | > 4000 | 0.737 | 1.22 | 0.992 | > 10.2
16 | NCI-H69 (small cell lung carcinoma, suspension) | 0.923 | > 10.2 | 0.986 | > 0.5 | 0.59 | 0.00728 | 0.969 | > 5.12 | 0.984 | > 2 | 0.985 | > 5 | 0.967 | > 10 | 0.843 | 3310 | 0.634 | 0.787 | 0.986 | > 10.2
17 | NCI-H187 (small cell lung carcinoma, suspension) | 0.934 | > 10.2 | 0.988 | > 0.5 | 0.715 | 0.0172 | 0.987 | > 5.12 | 0.98 | > 2 | 0.986 | > 5 | 0.949 | > 10 | 0.552 | 351 | 0.858 | 4.82 | 0.988 | > 10.2
18 | NCI-H211 (small cell lung carcinoma, adherent) | 0.976 | > 10.2 | 0.984 | > 0.5 | 0.525 | 0.00467 | 0.925 | > 5.12 | 0.978 | > 2 | 0.986 | > 5 | 0.954 | > 10 | 0.597 | 458 | 0.64 | 0.773 | 0.959 | > 10.2
19 | NCI-H226 (lung squamous cell carcinoma, adherent) | 0.985 | > 10.2 | 0.967 | > 0.5 | 0.771 | 0.0257 | 0.869 | > 5.12 | 0.987 | > 2 | 0.94 | > 5 | 0.987 | > 10 | 0.859 | 3580 | 0.962 | > 5.12 | 0.976 | > 10.2
20 | NCI-H446 (small cell lung carcinoma, semi-adherent) | 0.892 | > 10.2 | 0.984 | > 0.5 | 0.7 | 0.0154 | 0.929 | > 5.12 | 0.931 | > 2 | 0.986 | > 5 | 0.985 | > 10 | 0.812 | 2350 | 0.757 | 1.89 | 0.939 | > 10.2
21 | NCI-H510A (small cell lung carcinoma, semi-adherent) | 0.932 | > 10.2 | 0.988 | > 0.5 | 0.666 | 0.0111 | 0.949 | > 5.12 | 0.99 | > 2 | 0.988 | > 5 | 0.923 | > 10 | 0.82 | 2060 | 0.576 | 0.508 | 0.986 | > 10.2
22 | NCI-H524 (small cell lung carcinoma, suspension) | 0.955 | > 10.2 | 0.981 | > 0.5 | 0.912 | > 0.064 | 0.991 | > 5.12 | 0.991 | > 2 | 0.961 | > 5 | 0.99 | > 10 | 0.635 | 565 | 0.634 | 0.719 | 0.991 | > 10.2
23 | NCI-H526 (small cell lung carcinoma, suspension) | 0.985 | > 10.2 | 0.979 | > 0.5 | 0.613 | 0.00805 | 0.97 | > 5.12 | 0.932 | > 2 | 0.962 | > 5 | 0.958 | > 10 | 0.795 | 1770 | 0.879 | 4.87 | 0.962 | > 10.2
24 | NCI-H747 (large intestine, adherent) | 0.851 | > 10.2 | 0.968 | > 0.5 | 0.782 | 0.0332 | 0.909 | > 5.12 | 0.982 | > 2 | 0.98 | > 5 | 0.94 | > 10 | 0.622 | 587 | 0.879 | > 5.12 | 0.865 | > 10.2
25 | NCI-H847 (small cell lung carcinoma, adherent) | 0.797 | 3.83 | 0.993 | > 0.5 | 0.462 | 0.00321 | 0.864 | 3.14 | 0.984 | > 2 | 0.993 | > 5 | 0.982 | > 10 | 0.871 | 2600 | 0.626 | 0.661 | 0.94 | > 10.2
